{
  "source": "PubChem BioAssay AID686979",
  "about": "(National Center for Advancing Translational Sciences (NCATS), 2013)",
  "note": "About 50,000 (12%) of roughly 420,000 compounds were called active. Inconclusive results, whose numbers are uncertain, are shown with a selection of clear calls. The call rests on the fitted dose curve; in most records, active means well fitted inhibition curve with a large enough effect; inconclusive means small, poorly fitted or top-dose-only effect; inactive means flat fitted curve, though single readings scatter. Potencies of inconclusive entries are left out as doubtful fits. On the % scale 0 is the no-effect control and ±100 the full control effect; potency means the concentration at half of the fitted maximal effect; tags describe the fitted curve by direction and shape.",
  "data": [
    {"assay": "qHTS for Inhibitors of human tyrosyl-DNA phosphodiesterase 1 (TDP1): qHTS in cells in presence of CPT; further: nearly all actives have a fitted effect of over 55% in size", "conditions": "chicken DT40 Tdp1-/-;hTDP1 cells + 20 nM CPT, ATP luminescence, 48 h; activity change, negative = growth inhibition: at 46.2 µM (top of the series) unless noted", "procedure,_shortened": "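Chicken DT40 Tdp1-/- cells stably complemented with human TDP1 were seeded at 400 cells/well in medium containing 20 nM camptothecin, exposed to pin-transferred compounds, and grown at 37 °C for at least 48 hr. Viability was read as ATP luminescence.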", "values": [
      {"smiles": "Cc1ccnc(NS(=O)(=O)c2ccc(NC(=O)C3CCCCC3)cc2)n1", "activity change, negative = growth inhibition": "inactive: 2.41%"},
      {"smiles": "COCCCn1c(SCC(=O)N(C)C)nnc1-c1ccccc1", "activity change, negative = growth inhibition": "inconclusive: -25.5% [inhibitor]"},
      {"smiles": "Cc1ccc2nsnc2c1NC(=O)c1ccc(-c2cc(Cl)ccc2Cl)o1", "Potency": "inconclusive [inhibitor, single point]"},
      {"smiles": "COc1cc(C2OC(=O)c3ccccc3S2)cc(OC)c1OC", "note": "(stereo unspecified)", "activity change, negative = growth inhibition": "inactive: 0.576%"},
      {"smiles": "CSc1sc(C)cc1C1C(C#N)=C(N)N(c2cccnc2)C2=C1C(=O)CCC2", "note": "(stereo unspecified)", "Potency": "active: 11.6 µM"},
      {"smiles": "COc1cccc(C(=O)NNC(=O)c2ccccc2)c1", "activity change, negative = growth inhibition": "inactive: -9.13%"},
      {"smiles": "CCCC/C=C/[C@H](c1ccccc1)[C@H](CO)Cc1cccnc1", "Potency": "inconclusive [inhibitor, single point]"},
      {"smiles": "O=C(C1=C[C@H](c2csc3ccccc23)C[C@H](OCCCCO)O1)N1CCN(Cc2ccc3c(c2)OCO3)CC1", "Potency": "inconclusive [inhibitor, single point]"},
      {"smiles": "Cc1ccc(C)c(NC(=O)CCOc2ccccc2)c1", "Potency": "inconclusive [inhibitor, single point]"},
      {"smiles": "Cc1csc2nc(O)c(C(=O)NC3CCCCC3)c(=O)n12", "Potency": "inconclusive [inhibitor, single point]"},
      {"smiles": "Cc1cc(C)n2c(SCc3ccccc3Cl)nnc2n1", "activity change, negative = growth inhibition": "inactive: -21.9%"},
      {"smiles": "Cc1cc2nc(C3CCCCC3)c(Cc3ccsc3)n2c(C)c1Br", "Potency": "inconclusive [inhibitor, partial curve]"},
      {"smiles": "Cc1c(Cl)cccc1NC(=O)CSc1ccc(-c2ccccn2)nn1", "Potency": "inconclusive [inhibitor, partial curve, poor fit]"},
      {"smiles": "CCOc1ccc(NC(=O)COC(=O)c2ccc3c(c2)C(=O)N(CCc2ccccc2)C3=O)cc1", "Potency": "inconclusive [inhibitor, single point]"},
      {"smiles": "CC(=O)Oc1ccc(/C=c2\\sc3ncnn3c2=O)cc1", "Potency": "active: 20.6 µM"},
      {"smiles": "COc1cccc(Nc2cc(C)nc3ccccc23)c1", "Potency": "inconclusive [inhibitor, partial curve]"},
      {"smiles": "Cc1c(NS(=O)(=O)c2cccc(C(=O)NCc3ccc(Cl)cc3)c2)c(=O)n(-c2ccccc2)n1C", "Potency": "inconclusive [inhibitor, single point]"},
      {"smiles": "COc1ccc(S(=O)(=O)N2CCCCC2)cc1NC(=O)C1CC1", "activity change, negative = growth inhibition": "inactive: 0.33%"},
      {"smiles": "Cc1ccc2nc(-c3ccc(F)cc3)c(NC(C)(C)CC(C)(C)C)n2c1", "Potency": "active: 16.4 µM"},
      {"smiles": "Nc1cccc(NC(=O)CCC(=O)NCc2ccco2)c1", "activity change, negative = growth inhibition": "inactive: 6.74%"},
      {"smiles": "COc1ccc(CC(=O)Nc2cccc(S(=O)(=O)N3CCCCC3)c2)cc1", "Potency": "inconclusive [inhibitor, partial curve]"}
    ]}
  ]
}
